# Laboratory results taken from PubChem BioAssay AID485294 (National Center for Advancing Translational Sciences (NCATS), 2010).
# Screen size: about 370,000 compounds; about 150 (0.041%) were called active. The inconclusive results got no clear call from the source; some entries with a clear call stand among them for comparison. The call rests on the fitted dose curve; in most records, active means well fitted inhibition curve with a large enough effect; inconclusive means small, poorly fitted or top-dose-only effect; inactive means flat fitted curve, though single readings scatter. Potencies of inconclusive entries are left out as doubtful fits.
# Target: Beta-lactamase (Escherichia coli (strain K12)) (UniProt P00811)
# Chain of UniProt P00811 (P00811 whole entry, looked up): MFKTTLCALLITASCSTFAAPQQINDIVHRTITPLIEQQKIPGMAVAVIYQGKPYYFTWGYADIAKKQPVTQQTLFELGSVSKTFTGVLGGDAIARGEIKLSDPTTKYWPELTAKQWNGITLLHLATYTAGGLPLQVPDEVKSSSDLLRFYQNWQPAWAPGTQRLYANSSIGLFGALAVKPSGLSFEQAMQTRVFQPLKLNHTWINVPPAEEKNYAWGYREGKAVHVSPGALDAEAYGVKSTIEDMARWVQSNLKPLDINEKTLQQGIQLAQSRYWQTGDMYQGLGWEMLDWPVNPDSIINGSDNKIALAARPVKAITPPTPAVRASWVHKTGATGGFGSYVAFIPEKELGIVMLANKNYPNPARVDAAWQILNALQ
# Assay: qHTS Inhibitors of AmpC Beta-Lactamase (assay with detergent); further: nearly all actives have a fitted effect of over 25% in size;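 on activity change, negative = inhibition: 0% = no-compound wells and -100% = no-enzyme wells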
# Details: AmpC hydrolysis of nitrocefin, absorbance 480 nm, 0.01% Triton; activity change, negative = inhibition: at 114 µM (top of the series)
# Outline: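 20 mM phosphate pH 7.0 + 0.01% (detergent screen) or 0.0001% Triton X-100; 5.3 nM AmpC reagent; cpd preinc 15 min RT; nitrocefin (800 uM stock) to start; A480 q20 s × 4 min; Activity was normalised to no-enzyme and no-compound control wells.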
# Potency means the concentration at half of the fitted maximal effect; tags describe the fitted curve by direction and shape.
SMILES,Potency,"activity change, negative = inhibition"
CCc1nnc(NC(=O)CSc2nnc(Cc3ccccc3)n2-c2ccccc2)s1,"inconclusive [inhibitor, full curve, poor fit]",–
COc1ccccc1-n1c(-c2ccccc2)c[n+]2c1CCc1ccccc1-2,inactive,–
Cc1ccc(-c2noc(-c3ccccc3C(=O)N3CCCC3)n2)cc1,"inconclusive [inhibitor, full curve, poor fit]",–
Cc1cc(NC(=O)Cn2nc3c(cc2=O)CCCC3)ccc1Br,"inconclusive [inhibitor, full curve, poor fit]",–
CCC(C)NC(=O)c1ccc(CNS(=O)(=O)c2ccc3c(c2)C(C)(C)C(=O)N3C)cc1 (stereo not given),"inconclusive [inhibitor, partial curve, poor fit]",–
Cc1ccc(NC(=O)CN2C(=O)C(C)Oc3ccccc32)nc1 (stereo not given),"inconclusive [inhibitor, full curve]",–
COc1ccc(CN(CC(=O)NCC2CCCO2)C(=O)CCC(=O)Nc2cc(C)ccn2)cc1 (stereo not given),"inconclusive [inhibitor, full curve, poor fit]",–
Cc1cc([N+](=O)[O-])nn1CCCC(=O)N1CCN(c2ccc(F)cc2)CC1,"inconclusive [inhibitor, full curve, poor fit]",–
NC(=O)Nn1c(CCC(=O)O)ccc1-c1ccc(Br)cc1,"inconclusive [inhibitor, full curve, poor fit]",–
CC1Cn2c(nnc2-c2ccccc2O)S1 (stereo not given),"inconclusive [inhibitor, full curve]",–
CN(C)/N=C/c1ccc(Sc2ccccc2[N+](=O)[O-])o1,"inconclusive [inhibitor, single point]",–
O=C(Nc1cccc(C(F)(F)F)c1)c1cc(S(=O)(=O)N2CCCCC2)ccc1N1CCOCC1,"inconclusive [inhibitor, full curve, poor fit]",–
COc1ccc(NS(=O)(=O)c2cccc3nsnc23)cc1OC,"inconclusive [inhibitor, full curve, poor fit]",–
COc1ccc(OC)c(S(=O)(=O)N2CCC(C(=O)Nc3ccc(C)c(C)c3)CC2)c1,"inconclusive [inhibitor, full curve, poor fit]",–
CC1(C)CC(=O)C=C(NNC(=O)c2ccccc2O)C1,–,inactive: -4.91%
O=C(c1cccs1)N1CCn2c1nc1ccccc12,"inconclusive [inhibitor, partial curve, poor fit]",–
CC1(C)CC(=O)C2=C(C1)N(Cc1cccnc1)C(=O)C2(NC(=O)c1ccc(F)cc1)C(F)(F)F (stereo not given),"inconclusive [inhibitor, full curve, poor fit]",–
Fc1ccccc1/C=N/Nc1ccc(Cl)nn1,"inconclusive [inhibitor, partial curve, poor fit]",–
O=C(/C=C/c1ccco1)Nc1cccc(S(=O)(=O)N2CCOCC2)c1,"inconclusive [inhibitor, full curve, poor fit]",–
Cc1ccc(NC(=S)NCc2ccc3[nH]c4c(c3c2)CCCC4)cc1,"inconclusive [inhibitor, full curve, poor fit]",–
CCC(c1nnc(SCC(=O)Nc2ccc(C(=O)N(C)C)cc2)n1Cc1ccccc1)N(C)C (stereo not given),"inconclusive [inhibitor, single point]",–
Cc1ccc(C(=O)COC(=O)CCC(=O)Nc2ccccc2Cl)cc1[N+](=O)[O-],"inconclusive [inhibitor, full curve, poor fit]",–

SMILES,Potency,"activity change, negative = inhibition"
CCn1c(SCC(=O)Nc2nc(C)cs2)nnc1-c1cccnc1,"inconclusive [inhibitor, partial curve, poor fit]",–
CCc1ccc(NC(=O)c2cnc3c(-c4ccccc4)c(C)nn3c2C)cc1,–,inactive: 6.28%
CCCCc1ccc(NC(=O)CSc2nc(=O)n(CCCN3CCOCC3)c3c2CCC3)cc1,"inconclusive [inhibitor, full curve, poor fit]",–
CC(=O)c1ccc(NC(=O)c2ccc(-c3nc(CSc4ccc(C)cc4)c(C)o3)cc2)cc1,"inconclusive [inhibitor, single point]",–
C=CCOC(=O)Nc1c(C(=O)OC)[nH]c2ccc(Cl)cc12,"inconclusive [inhibitor, full curve, poor fit]",–
Cc1[nH]c(=O)[nH]c(=O)c1CSc1nnc(CCCCCNC(=O)OC(C)(C)C)o1,"inconclusive [inhibitor, full curve, poor fit]",–
Cc1ccc(CNC(=O)c2ccc(OCC3CCCO3)cc2)cc1 (stereo not given),"inconclusive [inhibitor, full curve, poor fit]",–
O=C(Nc1ccccc1F)C1CCN(S(=O)(=O)c2cccc3nonc23)CC1,"inconclusive [inhibitor, full curve]",–
CCOC(=O)c1[nH]c(C)c(C(=O)N2CCN(c3ccccc3)CC2)c1C,–,inactive: -6.04%
Cc1ccc(S(=O)(=O)NC(=O)c2ccc(Br)o2)c(C)c1,"inconclusive [inhibitor, partial curve]",–
CC(C)(C)c1nc(SCC(=O)Nc2ccc(N3CCOCC3)cc2)c2ccccc2n1,"inconclusive [inhibitor, partial curve]",–
CCCCOC(=O)c1ccc(NC(=O)CSc2nncn2C)cc1,"inconclusive [inhibitor, full curve, poor fit]",–
O=C(Cn1cnc(Cl)c1Cl)c1ccc(F)cc1,–,inactive: -8.1%
Cc1c(NC(=S)NC(=O)c2ccccc2Cl)c(=O)n(-c2ccccc2)n1C,"inconclusive [inhibitor, full curve, poor fit]",–
O=C(CC1OC(=O)c2ccccc21)NC1CCCCC1 (stereo not given),"inconclusive [inhibitor, partial curve, poor fit]",–
Cc1cccc(OS(=O)(=O)NC(=O)OCC2CCCN3CCCCC23)c1 (stereo not given),"inconclusive [inhibitor, partial curve]",–
Cc1ccc(NC(=O)CSc2nc(=O)n(Cc3ccccn3)c3c2CCC3)cc1F,–,inactive: -2.4%
O=C(/C=C/c1ccc(Br)o1)NC(c1ccccc1)c1ccccc1,–,inactive: 1.49%
COC(=O)c1c(NC(=O)Cc2coc3cc(C)cc(C)c23)sc2c1CCC2,–,inactive: -7.26%
COCCNC(=S)Nc1ccc2nc(N3CCOCC3)cc(C)c2c1,"inconclusive [inhibitor, single point]",–
O=C(NN1CCN(Cc2ccccc2Cl)CC1)c1ccc(Cl)cc1,"inconclusive [inhibitor, full curve, poor fit]",–
Cc1cccc2sc(NC(=O)Cn3cccc3)nc12,–,inactive: -8.05%

SMILES,Potency,"activity change, negative = inhibition"
COc1ccc(NC(=O)CN2C(=O)NC3(CCCC3)C2=O)cc1OC,"inconclusive [inhibitor, full curve]",–
CCn1nc(C(=O)NNC(=O)COc2ccc(OC)cc2)c2ccccc2c1=O,"inconclusive [inhibitor, single point]",–
O=C(Nc1cccc(Cl)c1)N(Cc1nc2ccccc2c(=O)[nH]1)Cc1cccs1,"inconclusive [inhibitor, single point]",–
CC(C)OCCCN1CN(S(=O)(=O)c2ccccc2)c2nc3ccccc3nc21,"inconclusive [inhibitor, full curve, poor fit]",–
Cn1ccnc1C(=O)c1ccc(N)cc1,–,inactive: 7%
Cc1ccc2cc3cc(C(=O)NCCC(C)C)oc3nc2c1,–,inactive: -12.5%
COc1ccc(S(=O)(=O)/C(C#N)=C/Nc2cccc(F)c2)cc1,"inconclusive [inhibitor, full curve, poor fit]",–
Cc1nc(SCC(=O)NC2(C#N)CCCC2)n(CC(C)C)c1C,–,inactive: -17.8%
COc1cccc(C(=O)Nc2ccc(C3CC3(Cl)Cl)cc2)c1 (stereo not given),–,inactive: 9.47%
CCCOc1ccc(N2C(=O)CC(N3CCC(O)(c4cccc(C(F)(F)F)c4)CC3)C2=O)cc1 (stereo not given),–,inactive: -15.7%
CCOC(=O)C1CCN(c2ccc(C(=O)O)cc2[N+](=O)[O-])CC1,"inconclusive [inhibitor, partial curve]",–
C/C=C/c1ccc(OCC(=O)OCc2csc(Nc3ccc(C)cc3)n2)c(OC)c1,–,inactive: -10.5%
CCN(CC)CCn1c(=N)n(CC(O)COc2cccc(C)c2)c2ccccc21 (stereo not given),–,inactive: -0.962%
Cc1nn2c(N)csc2nc1=O,"inconclusive [inhibitor, partial curve, poor fit]",–
CC(=O)OC[C@H]1O[C@@H](O/N=C/C[C@@H]2C=C[C@H](OC(C)=O)[C@@H](COC(C)=O)O2)[C@H](OC(C)=O)[C@@H](OC(C)=O)[C@@H]1OC(C)=O,"inconclusive [inhibitor, full curve, poor fit]",–
O=C(COC(=O)c1cc(=O)[nH]c2ccccc12)NC1CCCC1,"inconclusive [inhibitor, full curve]",–
COc1cc(NC(=O)c2cc(-c3cccc(O)c3)on2)cc(OC)c1OC,–,inactive: -7%
Cc1ccn2cc(CNC(=O)c3ccc(Br)o3)nc2c1,"inconclusive [inhibitor, partial curve]",–
COc1ccccc1CNCc1cc(OC)c(OC)c(OC)c1,"inconclusive [inhibitor, single point]",–
CCn1c(SCc2cccc(C(=O)O)c2)nnc1-c1ccccc1,"inconclusive [inhibitor, partial curve, poor fit]",–
CCOC(=O)c1ccc(NC(=S)N2CCSC2c2c(F)cc(F)cc2F)cc1 (stereo not given),–,inactive: -3.57%
